Experimental data from the supplement of paper PMC12355420.
Structures can show the parent of a compound that is named as a salt. The list shows a part of the results. Rule as the data show it: active = 0.5 or less and inactive = the rest. Many values rest on one well or one pass, so single values are uncertain.

Experiments:
Settings in all cases: 50 µM; 24 h
[1] = system: HeLa VPS33A reporter cells; assay: relative cell viability (CellMask signal) vs DMSO (fraction of DMSO); higher = less cytotoxic;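 also: primary screen of an FDA-approved drug library in HeLa reporter cells in 96-well format, CellMask signal normalized to DMSO-treated wells set as 1, under 0.5 deemed highly cytotoxic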
[2] = system: HeLa VPS33A R498W KI + HA-SDC1-FLAG; assay: relative GAG core protein HA-SDC1 amount per cell number vs DMSO (fraction of DMSO); higher = more SDC1 (GAG core protein);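 also: HA-SDC1 level read out by In-Cell Western staining with an anti-HA antibody against the N-terminal tag, screening FDA-approved library drugs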
[3] = system: HeLa VPS33A KO + NLuc-VPS33A R498W; assay: relative mutant VPS33A R498W amount (NanoLuc luminescence) vs DMSO (fraction of DMSO); HeLa model of a glycosaminoglycan (GAG) storage disease; KI is knock-in and KO knock-out; SDC1 is syndecan 1; higher = higher mutant VPS33A level;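 also: screen of an FDA-approved drug library, NanoLuc luminescence read after lysing the treated cells, taken as a measure of mutant VPS33A protein stability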

Compound | relative cell viability [1] | relative GAG core protein HA-SDC1 amount per cell number [2] | relative mutant VPS33A R498W amount [3]
NS(=O)(=O)c1cc2c(cc1Cl)N=CNS2(=O)=O [Chlorothiazide] | 1.25 | inactive: 1.51 | 1.13
CC[C@H](C)C(=O)O[C@H]1CCC=C2C=C[C@H](C)[C@H](CC[C@@H]3C[C@@H](O)CC(=O)O3)[C@H]21 [Mevastatin] | 0.962 | inactive: 0.623 | 2.09
CN1CCN2c3ccccc3Cc3ccccc3C2C1 (stereo not given) [Mianserin HCl] | 0.553 | active: 0.491 | 0.797
CCCCCOC(=O)Nc1nc(=O)n([C@@H]2O[C@H](C)[C@@H](O)[C@H]2O)cc1F [Capecitabine] | 1.32 | inactive: 0.962 | 0.913
C[N+]1(C)[C@@H]2CC[C@H]1C[C@@H](OC(=O)C(O)c1ccccc1)C2 (stereo not given in full) [Homatropine Methylbromide] | 1.01 | inactive: 0.799 | 1.02
Cc1cccc(C)c1OCC(=O)N[C@@H](Cc1ccccc1)[C@@H](O)C[C@H](Cc1ccccc1)NC(=O)[C@H](C(C)C)N1CCCNC1=O [Lopinavir] | 0.618 | inactive: 0.565 | 0.504
CCCNC(=O)NS(=O)(=O)c1ccc(Cl)cc1 [Chlorpropamide] | 1.06 | inactive: 1.2 | 1.26
Cc1nc(C)c(C)nc1C [Ligustrazine Hydrochloride] | 1.06 | inactive: 0.911 | 1.25
Cc1c(N(C)C)c(=O)n(-c2ccccc2)n1C [Amidopyrine] | 1.07 | inactive: 0.812 | 1.41
CCN1CCN(c2cc(-c3ccc(F)cc3)c3c(n2)CCCCCC3)CC1 [Blonanserin] | 1.32 | inactive: 0.875 | 1.18
NC(=O)c1cc[n+](CC2=C(C(=O)[O-])N3C(=O)[C@@H](NC(=O)[C@@H](c4ccccc4)S(=O)(=O)O)[C@H]3SC2)cc1 [Cefsulodin (sodium salt)] | 1.02 | inactive: 0.829 | 1.74
CCN(CC)C(=O)/C(C#N)=C/c1cc(O)c(O)c([N+](=O)[O-])c1 [Entacapone] | 0.941 | active: 0.471 | 2.54
Cc1ccc(C(C)C)cc1O [Carvacrol] | 1.07 | inactive: 0.811 | 1.18
CC(=O)Nc1nnc(S(N)(=O)=O)s1 [Acetazolamide] | 1.12 | inactive: 0.97 | 1.28
Cc1ncc(CO)c(CO)c1O [Pyridoxine HCl] | 0.963 | inactive: 0.901 | 1.27
COc1ccc2c3c1O[C@H]1C[C@@H](O)C=C[C@@]31CCN(C)C2 [Galanthamine] | 1.42 | inactive: 1.11 | 1.03
Cl.NCCCC[C@H](N)C(=O)O [L-Lysine hydrochloride] | 1.07 | inactive: 0.959 | 1.07
CCCc1nn(C)c2c(=O)[nH]c(-c3cc(S(=O)(=O)N4CCN(C)CC4)ccc3OCC)nc12 [Sildenafil] | 1.1 | inactive: 1.94 | 1.21
CCC(=O)O[C@]1(C(=O)CCl)[C@@H](C)C[C@H]2[C@@H]3C[C@H](F)C4=CC(=O)C=C[C@]4(C)[C@@]3(F)[C@@H](O)C[C@@]21C [Halobetasol Propionate] | 0.833 | inactive: 1.16 | 0.85
CCc1oc2ccccc2c1C(=O)c1cc(Br)c(O)c(Br)c1 [Benzbromarone] | 0.904 | active: 0.351 | 1.15

Compound | relative cell viability [1] | relative GAG core protein HA-SDC1 amount per cell number [2] | relative mutant VPS33A R498W amount [3]
CN(Cc1cnc2nc(N)nc(N)c2n1)c1ccc(C(=O)N[C@@H](CCC(=O)O)C(=O)O)cc1 [Methotrexate] | 1.11 | inactive: 0.771 | 0.359
Cc1ccc(Nc2nccc(N(C)c3ccc4c(C)n(C)nc4c3)n2)cc1S(N)(=O)=O [Pazopanib Hydrochloride] | 1.46 | inactive: 1.32 | 0.52
Cc1cc(C)cc(OCC2CNC(=O)O2)c1 (stereo not given) [Metaxalone] | 0.949 | inactive: 0.669 | 1.22
Brc1c(NC2=NCCN2)ccc2nccnc12 [Brimonidine Tartrate] | 1.09 | inactive: 1.29 | 1.48
O=C1CN2Cc3c(ccc(Cl)c3Cl)N=C2N1 [Anagrelide HCl] | 1.02 | inactive: 0.704 | 0.282
CC#C[C@]1(O)CC[C@H]2[C@@H]3CCC4=CC(=O)CCC4=C3[C@@H](c3ccc(N(C)C)cc3)C[C@@]21C [Mifepristone] | 1.23 | active: 0.178 | 0.857
Cc1cn([C@@H]2C[C@@H](O)[C@H](CO)O2)c(=O)[nH]c1=O [Telbivudine] | 1.08 | inactive: 0.881 | 0.966
CC(C)/N=c1\cc2n(-c3ccc(Cl)cc3)c3ccccc3nc-2cc1Nc1ccc(Cl)cc1 [Clofazimine] | 0.997 | inactive: 1.05 | 0.745
COc1cc2c(cc1OC)[C@@H]1Cc3ccc(OC)c(OC)c3CN1CC2 [Rotundine] | 1.04 | inactive: 0.743 | 0.665
Cc1cnc(NC(=O)C2=C(O)c3ccccc3S(=O)(=O)N2C)s1 [Meloxicam (Mobic)] | 1.01 | inactive: 1.31 | 0.992
CC(C)(S)[C@@H](N)C(=O)O [Penicillamine] | 1.1 | inactive: 0.963 | 1.1
Nc1ccc(S(=O)(=O)Nc2ncccn2)cc1 [Sulfadiazine] | 1.15 | inactive: 0.942 | 0.862
NC(=O)c1ncn([C@@H]2O[C@H](CO)[C@@H](O)[C@H]2O)n1 [Ribavirin] | 0.99 | inactive: 0.86 | 1.92
CSc1nc2cc(Cl)c(Oc3cccc(Cl)c3Cl)cc2[nH]1 [Triclabendazole] | 0.91 | active: 0.199 | 2.52
C[C@@H]1C[C@H]2[C@@H]3C[C@H](F)C4=CC(=O)C=C[C@]4(C)[C@@]3(F)[C@@H](O)C[C@]2(C)[C@@]1(O)C(=O)CO [Flumethasone] | 0.901 | inactive: 1.15 | 1.08
C[C@@H](c1nc(-c2ccc(C#N)cc2)cs1)[C@](O)(Cn1cncn1)c1cc(F)ccc1F [Isavuconazole] | 1.08 | inactive: 0.6 | 0.761
Oc1ncnc2[nH]ncc12 [Allopurinol] | 1.28 | inactive: 1.12 | 0.943
O=C(O)c1ccc(-n2nc(-c3ccccc3O)nc2-c2ccccc2O)cc1 [Deferasirox] | 1.28 | inactive: 0.73 | 0.761
CN(C)C(=N)NC(=N)N [Metformin HCl] | 0.963 | inactive: 0.902 | 1.26
O=C(O)Cc1ccccc1Nc1c(Cl)cccc1Cl [Diclofenac Sodium] | 1.02 | active: 0.428 | 0.443

Compound | relative cell viability [1] | relative GAG core protein HA-SDC1 amount per cell number [2] | relative mutant VPS33A R498W amount [3]
C[C@H](CCC(=O)NCC(=O)O)[C@H]1CC[C@H]2[C@@H]3[C@H](O)C[C@@H]4C[C@H](O)CC[C@]4(C)[C@H]3C[C@H](O)[C@]12C [Glycocholic Acid] | 1.04 | inactive: 0.851 | 1.4
O=C1C(c2[nH]c3ccccc3c2O)=Nc2ccccc21 [Indigo] | 1.01 | inactive: 0.721 | 0.946
Cc1ccc2c(Cl)cc(Cl)c(O)c2n1 [Chlorquinaldol] | 0.955 | active: 0.482 | 1.64
CC(NCCc1ccc(O)cc1)C(O)c1ccc(O)cc1 (stereo not given) [Ritodrine HCl] | 1.32 | inactive: 0.884 | 1.28
CC(C(=O)O)c1ccc2c(c1)[nH]c1ccc(Cl)cc12 (stereo not given) [Carprofen] | 1.03 | inactive: 0.858 | 0.985
Oc1ccc2ccccc2c1 [2-Naphthol] | 1.04 | inactive: 0.81 | 1.33
COc1cc(C(=O)O)ccc1NC(=O)[C@@H]1N[C@@H](CC(C)(C)C)[C@](C#N)(c2ccc(Cl)cc2F)[C@H]1c1cccc(Cl)c1F | 0.547 | inactive: 0.524 | 0.925
CCCCNC(=O)NS(=O)(=O)c1ccc(C)cc1 [Tolbutamide] | 1.04 | inactive: 0.819 | 1.45
Cc1cc(C2CCCCC2)n(O)c(=O)c1 [Ciclopirox ethanolamine] | 1.03 | active: 0.31 | 2.25
CC(=O)NS(=O)(=O)c1ccc(N)cc1 [Sulfacetamide Sodium] | 1.23 | inactive: 1.61 | 1.05
NCCCC(=O)O [4-Aminobutyric acid] | 1.05 | inactive: 0.984 | 1.17
Nc1nc2c(ncn2[C@H]2C[C@H](O)[C@@H](CO)O2)c(=O)[nH]1 [2'-Deoxyguanosine] | 0.982 | inactive: 0.757 | 1.09
O=C1CCc2cc(OCCCCc3nnnn3C3CCCCC3)ccc2N1 [Cilostazol] | 1.03 | inactive: 1.02 | 1.27
Cc1cc(-n2c(=O)[nH]c(=O)n(C)c2=O)ccc1Oc1ccc(SC(F)(F)F)cc1 [Toltrazuril] | 1.1 | inactive: 0.664 | 1.22
CCCCCN(C)CCC(O)(P(=O)(O)O)P(=O)(O)O [Ibandronate sodium] | 0.958 | inactive: 1.19 | 0.517
O=C(O)C(=O)O.[NH-][C@@H]1CCCC[C@H]1[NH-].[Pt+2] [Oxaliplatin] | 1.25 | active: 0.339 | 4.31
COC(=O)C1=C(C)NC(C)=C(C(=O)OC2CCCN(Cc3ccccc3)C2)C1c1cccc([N+](=O)[O-])c1 (stereo not given) [Benidipine HCl] | 0.926 | active: 0.284 | 0.333
CCN(C(=O)c1c(O)c2c(Cl)cccc2n(C)c1=O)c1ccccc1 | 1.14 | inactive: 1.19 | 0.931
CC1=C(C(=O)O)N2C(=O)[C@@H](NC(=O)[C@H](N)c3ccc(O)cc3)[C@H]2SC1 [Cefadroxil (hydrate)] | 1.01 | inactive: 0.865 | 1.41
CN(N=O)C(=O)N[C@@H]1[C@@H](O)[C@H](O)[C@@H](CO)O[C@@H]1O [Streptozocin] | 1.05 | inactive: 1.56 | 1.13
